{"sequences": {"note": "By UniProt entry, the sequences of proteins in these tests, tags left out. Residues count along the entry.", "GST-RHA fusion protein encoding amino acid residues 1 to 263 (Q08211, residues 1-263)": "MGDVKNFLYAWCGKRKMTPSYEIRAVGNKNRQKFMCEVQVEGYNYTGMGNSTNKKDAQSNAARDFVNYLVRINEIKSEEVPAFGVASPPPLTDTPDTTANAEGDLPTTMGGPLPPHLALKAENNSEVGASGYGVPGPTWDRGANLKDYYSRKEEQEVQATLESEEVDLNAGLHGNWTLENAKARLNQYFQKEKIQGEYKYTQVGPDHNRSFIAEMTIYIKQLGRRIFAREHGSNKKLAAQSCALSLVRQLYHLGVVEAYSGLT", "GST-RHA fusion protein encoding amino acids 1 to 79 (first RBM) (Q08211, residues 1-79)": "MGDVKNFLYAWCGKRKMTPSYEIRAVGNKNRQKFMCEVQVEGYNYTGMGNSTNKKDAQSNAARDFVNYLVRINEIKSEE", "UniProt P19525": "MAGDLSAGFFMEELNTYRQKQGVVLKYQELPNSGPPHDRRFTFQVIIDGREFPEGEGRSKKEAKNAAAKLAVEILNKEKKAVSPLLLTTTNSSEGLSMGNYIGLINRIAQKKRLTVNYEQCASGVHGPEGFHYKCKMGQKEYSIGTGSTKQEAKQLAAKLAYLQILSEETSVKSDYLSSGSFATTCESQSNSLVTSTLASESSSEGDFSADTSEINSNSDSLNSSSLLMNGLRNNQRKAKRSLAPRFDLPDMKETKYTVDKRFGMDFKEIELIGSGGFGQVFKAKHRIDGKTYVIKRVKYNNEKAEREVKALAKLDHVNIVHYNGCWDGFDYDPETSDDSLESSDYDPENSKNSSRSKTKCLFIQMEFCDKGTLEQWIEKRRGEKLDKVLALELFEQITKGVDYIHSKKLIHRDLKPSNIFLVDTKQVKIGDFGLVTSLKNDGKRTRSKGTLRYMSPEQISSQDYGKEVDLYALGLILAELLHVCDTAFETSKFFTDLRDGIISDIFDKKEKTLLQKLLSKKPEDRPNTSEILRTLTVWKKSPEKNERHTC", "UniProt O70133": "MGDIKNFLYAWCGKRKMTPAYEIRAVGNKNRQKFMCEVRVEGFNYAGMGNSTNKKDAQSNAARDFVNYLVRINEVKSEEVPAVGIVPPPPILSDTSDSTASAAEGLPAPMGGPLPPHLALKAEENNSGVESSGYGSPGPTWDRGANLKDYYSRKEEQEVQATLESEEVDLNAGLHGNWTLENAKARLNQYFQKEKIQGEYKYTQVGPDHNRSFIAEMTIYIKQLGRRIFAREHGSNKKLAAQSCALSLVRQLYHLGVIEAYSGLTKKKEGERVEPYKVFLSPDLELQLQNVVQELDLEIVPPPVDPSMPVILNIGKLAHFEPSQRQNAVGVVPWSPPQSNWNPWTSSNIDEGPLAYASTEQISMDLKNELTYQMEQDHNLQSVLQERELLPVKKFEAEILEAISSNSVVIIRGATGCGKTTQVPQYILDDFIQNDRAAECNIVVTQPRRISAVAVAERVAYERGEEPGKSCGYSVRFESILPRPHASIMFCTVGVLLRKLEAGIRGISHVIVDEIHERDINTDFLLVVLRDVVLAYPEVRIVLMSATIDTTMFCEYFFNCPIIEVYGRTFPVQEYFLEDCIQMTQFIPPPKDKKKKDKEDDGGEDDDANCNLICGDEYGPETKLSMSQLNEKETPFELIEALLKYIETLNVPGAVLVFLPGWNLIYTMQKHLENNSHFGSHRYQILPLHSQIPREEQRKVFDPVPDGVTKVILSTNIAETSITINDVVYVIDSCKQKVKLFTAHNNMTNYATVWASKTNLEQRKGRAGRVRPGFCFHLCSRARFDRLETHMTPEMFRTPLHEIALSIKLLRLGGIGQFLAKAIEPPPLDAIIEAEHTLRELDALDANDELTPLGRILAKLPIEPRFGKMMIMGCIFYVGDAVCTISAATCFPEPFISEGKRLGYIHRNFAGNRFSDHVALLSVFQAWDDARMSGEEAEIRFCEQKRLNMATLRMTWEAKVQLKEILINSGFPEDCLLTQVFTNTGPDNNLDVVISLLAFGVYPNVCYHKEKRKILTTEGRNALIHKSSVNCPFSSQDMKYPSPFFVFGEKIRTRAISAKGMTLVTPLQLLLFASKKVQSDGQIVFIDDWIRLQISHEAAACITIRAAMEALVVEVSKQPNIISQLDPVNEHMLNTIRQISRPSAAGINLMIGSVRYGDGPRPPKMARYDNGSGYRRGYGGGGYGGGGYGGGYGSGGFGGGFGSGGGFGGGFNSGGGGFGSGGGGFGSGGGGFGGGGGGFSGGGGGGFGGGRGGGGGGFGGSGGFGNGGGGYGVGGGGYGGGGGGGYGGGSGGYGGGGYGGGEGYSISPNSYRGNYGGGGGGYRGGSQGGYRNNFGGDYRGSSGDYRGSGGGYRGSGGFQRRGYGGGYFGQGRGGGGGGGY"}, "source": "paper PMC2637979", "key": {"[1]": {"biological_target": "GST-RHA fusion protein encoding amino acid residues 1 to 263 (UniProt Q08211)", "experiment": "pull-down; as a5, ~20 ug GST-RHA 1-263 incubated with a 16 bp dsRNA at 10, 100 or 1000-fold excess for one hour before 35S-PKR was added; only the target purified"}, "[2]": {"biological_target": "GST-RHA fusion protein encoding amino acids 1 to 79 (first RBM) (UniProt Q08211)", "experiment": "pull-down; GST-RHA fusion constructs on glutathione beads incubated with in vitro translated 35S-PKR in cleared E. coli lysate, 2 h, 4 C; five rinses in 50 mM K3PO4 pH 7.5, 150 mM KCl, 1 mM MgCl2, 10% glycerol, 1% Triton X-100; autoradiography; only the target purified"}, "[3]": {"biological_target": "GST-RHA fusion protein encoding amino acid residues 1 to 263 (UniProt Q08211)", "experiment": "pull-down; GST-RHA fusion constructs on glutathione beads incubated with in vitro translated 35S-PKR in cleared E. coli lysate, 2 h, 4 C; five rinses in 50 mM K3PO4 pH 7.5, 150 mM KCl, 1 mM MgCl2, 10% glycerol, 1% Triton X-100; autoradiography; only the target purified"}, "[4]": {"biological_target": "human PKR (double-stranded RNA-activated protein kinase R) expressed in pkr-null MEFs (human) (UniProt P19525)", "experiment": "co-IP; immunoprecipitation with antibodies to PKR or RHA from pkr-null MEFs expressing human PKR, treated with pIC (100 ug/ml, 2 h); Western blot with the opposing antibody"}, "[5]": {"biological_target": "human PKR (double-stranded RNA-activated protein kinase R) expressed in pkr-null MEFs (human) (UniProt P19525)", "experiment": "co-IP; as a3, cells not treated with pIC"}, "[6]": {"biological_target": "murine RNA helicase A (RHA), endogenous in MEFs (mouse (endogenous in MEFs)) (UniProt O70133)", "experiment": "co-IP; immunoprecipitation with a mouse monoclonal anti-RHA antibody from wild-type MEFs (pkr-null MEFs as control); Western blot for murine PKR"}}, "note": "No constants are given. Whether binding was seen depends on the method and setting. Binding seen in cells or lysates may run through a third protein. Some binding calls cover weakened binding; strength is not graded here.", "data": [{"molecule": "35S-labeled PKR synthesized in vitro (from UniProt P19525 1-551) (enzyme)", "values": [{"measurement": "binding", "setting": "[1]", "value": "binds"}, {"measurement": "binding", "setting": "[2]", "value": "no binding"}, {"measurement": "binding", "setting": "[3]", "value": "binds"}]}, {"molecule": "murine RNA helicase A (RHA), endogenous in MEFs (from UniProt O70133 1-1380) (enzyme)", "values": [{"measurement": "binding", "setting": "[4]", "value": "binds"}, {"measurement": "binding", "setting": "[5]", "value": "no binding (condition: cells not treated with pIC)"}]}, {"molecule": "murine PKR, endogenous in wild-type MEFs (enzyme, UniProt Q03963 1-515) MASDTPGFYMDKLNKYRQMHGVAITYKELSTSGPPHDRRFTFQVLIDEKEFPEAKGRSKQEARNAAAKLAVDILDNENKVDCHTSASEQGLFVGNYIGLVNSFAQKKKLSVNYEQCEPNSELPQRFICKCKIGQTMYGTGSGVTKQEAKQLAAKEAYQKLLKSPPKTAGTSSSVVTSTFSGFSSSSSMTSNGVSQSAPGSFSSENVFTNGLGENKRKSGVKVSPDDVQRNKYTLDARFNSDFEDIEEIGLGGFGQVFKAKHRIDGKRYAIKRVKYNTEKAEHEVQALAELNHVNIVQYHSCWEGVDYDPEHSMSDTSRYKTRCLFIQMEFCDKGTLEQWMRNRNQSKVDKALILDLYEQIVTGVEYIHSKGLIHRDLKPGNIFLVDERHIKIGDFGLATALENDGKSRTRRTGTLQYMSPEQLFLKHYGKEVDIFALGLILAELLHTCFTESEKIKFFESLRKGDFSNDIFDNKEKSLLKKLLSEKPKDRPETSEILKTLAEWRNISEKKKRNTC", "values": [{"measurement": "binding", "setting": "[6]", "value": "binds"}]}]}
